Target: calmodulin (with Ca^2+) (UniProt P0DP23)
Experiment: co-sedimentation

binding result: binds
B1: CaMKIIβ K43R, kinase-null mutant, purified (enzyme)
chain: not shown
